Consider 120 sequences from the supplement of paper PMC10126150.

The data set relates to ATP. Put plainly: switch fluorescence ratio, 500 uM ATP over buffer (Cy3 cluster intensity, sum of 5 cycles each) (fold (ratio)); higher = stronger signal-on switching upon ATP binding; sequences stand for … in TCGTCGGCAGCGTCAGATGTGTATAAGAGACAGTTTTTTTTTTTTTTTTTTTTTTTTT…TC. As to conditions: aptamer strand: ATP DNA aptamer (quencher-CACCTGGGGGAGTATTGCGGAGGAAGG + anchor), 100 nM annealed; ATP concentration: 500 uM; one replicate. The essentials:
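Switching-strand clusters labelled with Cy3 on a modified Illumina MiSeq flow-cell were annealed to 100 nM quencher-labelled ATP aptamer, imaged in selection buffer, and re-imaged after 15 min with 500 uM ATP at 22 °C. This was done over five cycles with NaOH stripping and re-annealing in between. The fluorescence ratio is summed target-cycle over summed buffer-cycle Cy3 intensity per cluster, averaged per switch-domain sequence, excluding clusters outside 100-1000 RFU.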

Values marked as one replicate rest on one cluster of the flow cell; about a third of the high ones do not repeat.
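Further: ATP exposure 15 min at 22 °C before imaging.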

Take TCTGAGGACG: the switch fluorescence ratio amounted to 1.01.
Take GTGATAGAGT: the switch fluorescence ratio is 0.964.
For the sequence CATTTGCCTC, the switch fluorescence ratio was 1.14.
The value for TCACAGAATG was 0.993; that for AGTAGTTCAT was 0.971.
Consider ATACGAGAGA, for which the switch fluorescence ratio is 1.
As to GTGCGAAGG, the switch fluorescence ratio came to 0.983.
To ATCCTGGCCG belongs 0.997; to TGGTAAGAAA, 0.982.
For the sequence TTTGCTCGAT, the switch fluorescence ratio is 0.98.
Take GTCGACGGTT: the switch fluorescence ratio was 0.983.
As to AACGGCCAGT, the switch fluorescence ratio was 1.04.
Turning to CCCGTGAGAG, the switch fluorescence ratio is 1.3.
With TAGCTTAATC, the switch fluorescence ratio turned out to be 1.07.
As to TACATCTTCT, the switch fluorescence ratio came to 1.05.
In the case of CGGTCTACTA, the switch fluorescence ratio stood at 1.03.
With TGAGCGGAGA, the switch fluorescence ratio is 0.983.
GCGATAGGTT: the switch fluorescence ratio worked out at 1.
As to GATGTGTCGG, the switch fluorescence ratio is 0.978.
ACTGTCTATT: the switch fluorescence ratio worked out at 1.01.
For CCGAGTCCGG, the switch fluorescence ratio turned out to be 1.45.
On to TCTTTATACC, for which the switch fluorescence ratio came to 1.06.
For TCGTCTAAAA, the switch fluorescence ratio was found to be 1.17.
Consider CTAACCCTTA, for which the switch fluorescence ratio worked out at 1.03.
As for GTGATTTCGA, the switch fluorescence ratio came to 0.967.
On to GATAGATGAT, for which the switch fluorescence ratio came out at 0.985.
Regarding GTCAGTAAAA, the switch fluorescence ratio was determined as 0.976.
For the sequence CGGCTGCCGT, the switch fluorescence ratio came out at 1.04.
In the case of GGGGGCTAGA, the switch fluorescence ratio was determined as 0.962.
ATGGAGGCCC: the switch fluorescence ratio is 0.976.
Consider TTGAAGACCA, for which the switch fluorescence ratio was 1.03.
As to TCAGAAGTGC, the switch fluorescence ratio stood at 1.19.
Regarding TGACTCCTGT, the switch fluorescence ratio stood at 1.03.
GTGGTAAAAA: the switch fluorescence ratio was determined as 0.975.
Turning to GGGGCATTGT, the switch fluorescence ratio was 1.
Regarding TTTATTTGGC, the switch fluorescence ratio amounted to 0.948.
Regarding CATGTAGCAG, the switch fluorescence ratio is 1.07.
To ATGCACACCA belongs 1.13.
As for GCACTACGTC, the switch fluorescence ratio was 1.07.
In the case of GTGCGTAAGT, the switch fluorescence ratio stood at 1.03.
The value for TCTAGTAAGG was 1.01; that for GGGAGTGGCT was 1.02.
Take CCCTTTAGAC: the switch fluorescence ratio was 1.01.
Regarding CATGCAATTG, the switch fluorescence ratio was found to be 0.963.
As to TGAGGCTGGA, the switch fluorescence ratio came to 0.991.
Take CTGGCAGGT: the switch fluorescence ratio is 1.03.
To CCGATAATTG belongs 1.01; to GAGTATTTCA, 1.04.
Consider AAGGCGATGA, for which the switch fluorescence ratio came out at 0.976.
For the sequence AACGTGTTAT, the switch fluorescence ratio came out at 0.954.
For CTGATGTGAA, the switch fluorescence ratio is 1.01.
The value for CTTGACGATC was 1.02.
For CCCGTTACTT, the switch fluorescence ratio is 1.16.
For CGACGCTTCG, the switch fluorescence ratio amounted to 1.14.
With GACACCAATG, the switch fluorescence ratio amounted to 0.993.
ACGTGGGCGG: the switch fluorescence ratio was 0.983.
The value for CCACTTTTGA was 0.977; that for AGAGCCTCTG was 1.07.
As to GGAAAAGGGG, the switch fluorescence ratio came out at 1.13.
The value for CCCGGCTATT was 1.1; that for CACTAGGCGT was 1.01; that for TTGAGCTTGG was 0.971.
Turning to CAGCGGAACA, the switch fluorescence ratio stood at 1.04.
In the case of TGTTCATGAG, the switch fluorescence ratio was determined as 0.979.
Regarding TGCGATTGGA, the switch fluorescence ratio amounted to 0.993.
In the case of CTAACTCGTG, the switch fluorescence ratio came out at 0.916.
Take AATAAGCGTC: the switch fluorescence ratio turned out to be 0.975.
For GTATTAAGAG, the switch fluorescence ratio was found to be 0.969.
To CGACACGACA belongs 1.2; to AGTCAAGGCT, 0.964; to GATCCGGCAC, 1.45.
For AAACGCGTCC, the switch fluorescence ratio stood at 1.14.
On to CCACCTTGTT, for which the switch fluorescence ratio came out at 0.978.
Take ATGTGGGGTC: the switch fluorescence ratio is 0.948.
GGGATGTGCC: the switch fluorescence ratio stood at 0.979.
Consider AGGGACATTG, for which the switch fluorescence ratio came to 1.02.
To CGATGAATAT belongs 1.04; to GGATACGAGG, 1.03; to CCGCCCGTGG, 1.22.
As to AATAAAATAT, the switch fluorescence ratio is 1.04.
TAGTGTACCA: the switch fluorescence ratio amounted to 1.11.
Consider CGGGAACGAC, for which the switch fluorescence ratio was 1.04.
Take GGCTCTCGAG: the switch fluorescence ratio was found to be 1.03.
On to GGTCCCGG, for which the switch fluorescence ratio was determined as 0.968.
In the case of GGAACCTTCT, the switch fluorescence ratio amounted to 2.44.
For CCGGCGGGTG, the switch fluorescence ratio came to 1.27.
As for ACAATAGGCT, the switch fluorescence ratio worked out at 1.02.
TCCTTTGTCC: the switch fluorescence ratio was 1.04.
GTTAGGGAAC: the switch fluorescence ratio worked out at 0.999.
In the case of TCAGCTATTA, the switch fluorescence ratio turned out to be 1.04.
As for GGATCCATTA, the switch fluorescence ratio stood at 0.968.
Turning to GGTACATCAG, the switch fluorescence ratio amounted to 1.03.
As for ACCGTTCAGT, the switch fluorescence ratio was 1.
Turning to GGCCAAAACG, the switch fluorescence ratio was found to be 1.01.
The value for TCACACCCAA was 1.21.
With TCGACCCCGT, the switch fluorescence ratio came to 1.1.
The value for TACGCCCTTC was 1.15; that for CATAGTATC was 0.961; that for TTCGACGACT was 1.11.
As for ACTTAGGAAC, the switch fluorescence ratio was found to be 0.992.
Turning to CAAGTAACCA, the switch fluorescence ratio is 1.13.
The value for GGGTTTGCCA was 1.03.
The value for CCCCATTCTC was 1.09.
Turning to TTATGGGGAC, the switch fluorescence ratio was found to be 0.997.
For the sequence CCTAGTACAC, the switch fluorescence ratio was found to be 1.15.
For GGCTGCTTAT, the switch fluorescence ratio came out at 1.03.
The value for GGGAAGGCAC was 1.07; that for TTGGTCCAAA was 1.01; that for GGGTGCGCTC was 1.02.
To TTCGCTTACG belongs 1.13; to TGTTATTTAT, 0.971.
As to CGTAATGGTT, the switch fluorescence ratio is 0.992.
On to GACTAGCCGT, for which the switch fluorescence ratio is 1.01.
The value for CCGCTGCGGT was 1.08.
The value for AGACACGTTC was 0.964; that for CACGTTTCCG was 0.944; that for ATAATTGGGC was 1.02.
On to ACGTCGGGGT, for which the switch fluorescence ratio stood at 0.994.
To ATCCAACGG belongs 1.09.
With GCATGCGAT, the switch fluorescence ratio was found to be 1.
